# Results taken from PubChem BioAssay AID1345083 (National Center for Advancing Translational Sciences (NCATS), 2018).
# About 6,200 (6.6%) of roughly 94,000 compounds were called active. The shares of active, inactive and inconclusive entries below differ from those in the screen. Calls come from the whole dose curve; as a rule, active = well fitted inhibition curve with a large enough effect; inconclusive = small, poorly fitted or top-dose-only effect; inactive = flat fitted curve, though single readings scatter. Potencies beside an inconclusive call are fits to weak or partial responses and may not hold up.
# Test: Cytotoxic Profiling in HEK 293 Cell Line of Diverse Libraries Using Quantitative High-Throughput Screening; note: nearly all actives have a fitted effect of over 60% in size
# Details: HEK 293 viability, ATP luminescence (CellTiter-Glo), 48-72 h; series mostly up to 115 µM
# Excerpt: Cell-based phenotypic screening is a commonly used approach to discover biological pathways, novel drug targets, chemical probes and high-quality hit-to-lead molecules. Many hits identified from high-throughput screening campaign are ruled out through a series of follow-up potency, selectivity/specificity, and cytotoxicity assays. Prioritization of molecules with little or no cytotoxicity for a more in-depth downstream evaluation influence the future direction of projects, so cytotoxicity profiling of the screening libraries at early stage is essential for increasing the likelihood of candidate success. In this study, we analyzed results from a cell-based cytotoxicity screening campaign, comprising nearly 10,000 compounds in NCATS annotated libraries, and over 100,000 compounds in a diversity library, evaluated in four normal cell lines (HEK 293, NIH 3T3, CRL-7250 and HaCat) and a cancer cell line (KB 3-1, a HeLa subline) with overall screening outcomes, hit rates, pan-activity and selectivity. For the annotated library, we also examined the primary targets and mechanistic pathways regularly associated with cell death. To our knowledge, this is the first study to use high-throughput screening to profile large libraries for cytotoxicity assessment in both normal and cancer cell lines. In summary, the results generated here constitutes a valuable resource for the scientific community and provides insight on identifying cytotoxic compounds with particular mechanisms of action, and prioritizing compounds with suitable cytotoxicity profile for further evaluation.
# HEK 293 cells were seeded into white 1536-well plates using a Multidrop Combi peristaltic dispenser (ThermoFisher, Waltham, MA) at a density of 250 cells/well in 5 uL of medium respectively. A pintool (Kalypsys) was used to transfer 23 nL of compound solution to the 1536-well assay plates. After 48 or 72 hr incubation at 37 degree Celsius, 5% CO2 and 95% humidity, 2.5 uL of CellTiter-Glo (Promega) was dispensed into each well using a dispenser (Aspect Automation, St. Paul, MN) with solenoid valves (Lee Valves, Westbrook CT). Plates were left at room temperature for 10 min before imaging the ATP-coupled luminescence using a ViewLux microplate imager (PerkinElmer, Waltham, MA).
# Potency is the fitted concentration of half-maximal effect; tags give direction and shape of the fitted curve.
row,Compound,Potency
1,CCOC(=O)C1(C/C=C/c2ccccc2)CCCNC1 (configuration not stated),"inconclusive: 89.1 µM [inhibitor, single point]"
2,COc1ccc(CNC(=O)Cn2cccc2-c2nc(-c3ccccc3)no2)cc1,"inconclusive: 79.4 µM [inhibitor, partial curve]"
3,O=C(NCc1ccncc1)c1ccc2c(c1)OCCN(c1ccccc1)C2,"inconclusive: 89.1 µM [inhibitor, partial curve, poor fit]"
4,Cc1ccccc1N1CCCN(Cc2ccccc2OCCO)CC1,"inconclusive: 56.2 µM [inhibitor, partial curve, poor fit]"
5,O=C(C1CCOC1)N1CC(Oc2cccc(-c3nc(-c4ccccc4)no3)c2)C1 (configuration not stated),"inconclusive: 50.1 µM [inhibitor, partial curve, poor fit]"
6,O=C(c1ccccc1)N1CCCC(c2nn(-c3ccccc3)c(=O)[nH]2)C1 (configuration not stated),"inconclusive: 79.4 µM [inhibitor, partial curve, poor fit]"
7,Fc1ccc(-c2noc([C@@H]3CCCN3Cc3ccc(Cl)cc3)n2)nc1,"inconclusive: 100 µM [inhibitor, partial curve, poor fit]"
8,CCc1ccc([S+](=O)([O-])c2nnn3c2nc(N2CCC(F)CC2)c2ccccc23)cc1,inactive
9,COc1ccc(N2CC3CCC(C2)N3Cc2ccc(NC(C)=O)cc2)cc1,inactive
10,O=C(CC1CCCN(c2cnn(CC3CC3)c(=O)c2)C1)N1CCN(c2ccccc2)CC1 (configuration not stated),active: 50.1 µM
11,COc1ccc(OCC(O)CN2CCC(=O)N(Cc3ccco3)Cc3sccc32)cc1 (configuration not stated),"inconclusive: 50.1 µM [inhibitor, partial curve, poor fit]"
12,COc1ccc(CC(=O)N2CCc3nc(C4CC4)nc(-c4ccc(Cl)cc4)c3C2)cc1,"inconclusive: 50.1 µM [inhibitor, partial curve, poor fit]"
13,CN(C)c1cc(=O)c2ccnc(-c3ccc(F)c(Cl)c3)c2o1,inactive
14,CN(Cc1cccnc1)c1nc2c(c(=O)[nH]1)CCN(Cc1cccc(F)c1F)CC2,"inconclusive: 35.5 µM [inhibitor, partial curve]"
15,COc1ccccc1Oc1ncccc1CNC(=O)c1csc(C)n1,"inconclusive: 100 µM [inhibitor, single point]"
16,Cc1ccc(-c2ccccc2CN2CCC(C(=O)NCC3CC3)CC2)cc1Cl,active: 35.5 µM
17,C=CCNC(=O)N[C@H]1C[C@@H](C(=O)N[C@H](Cc2c[nH]c3ccccc23)C(N)=O)N(C(=O)C2CC2)C1,inactive
18,Cc1cccc(CC(=O)N2CCCCC2c2noc(COc3ccc(F)cc3)n2)c1 (configuration not stated),"inconclusive: 50.1 µM [inhibitor, partial curve, poor fit]"
19,Cc1noc(-c2ccccc2OC2CCN(C(=O)CC3CCCCC3)C2)n1 (configuration not stated),"inconclusive: 89.1 µM [inhibitor, partial curve, poor fit]"
20,COc1ccc(NC(=O)Cc2c[nH]c3ncc(-c4ccccc4)cc23)cc1,inactive
21,CCCOCCCNC(=O)c1c(C)noc1-c1ccccc1OC,inactive
22,COc1ccc(-c2cc(N3CCN(C(=O)c4cccc(Br)c4)CC3)n[nH]2)cc1,"inconclusive: 44.7 µM [inhibitor, partial curve, poor fit]"
23,O=C(NCCC1CCN(C(=O)Nc2cccc(F)c2)CC1)c1ccccc1,inactive

row,Compound,Potency
1,Cc1noc(C)c1-c1cc(-c2ccccc2F)cn2cncc12,active: 79.4 µM
2,CC(C)N1C[C@@H](CO)[C@H](c2nc(-c3cccnc3)no2)C1,"inconclusive: 89.1 µM [inhibitor, single point]"
3,Cc1cc(C)cc(NC(=O)c2ccc3c(c2)N(C)C2CCCN2C3=O)c1 (configuration not stated),active: 70.8 µM
4,O=C(c1ccc2nccn2c1)N1CCC(c2ccccc2F)C1 (configuration not stated),"inconclusive: 8.91 µM [inhibitor, full curve, poor fit]"
5,CCOc1ccc(C(=O)NC2CCN(c3cc(-c4ccc(OC)cc4)[nH]n3)C2)cc1OCC (configuration not stated),"inconclusive: 39.8 µM [inhibitor, full curve, poor fit]"
6,COc1ccc(OC)c(CN2CCC3(CC2)CC3C(=O)N(C)CCOc2ccc(C)cc2)c1 (configuration not stated),inactive
7,COCCNC(=O)[C@H]1C[C@H](Oc2ccccc2)CN1Cc1cn(C)c2ccccc12,active: 39.8 µM
8,O=C(c1cccs1)N1CCN(C(=O)c2nnn3c2COC(c2ccc(Cl)cc2)C3)CC1 (configuration not stated),inactive
9,COC(=O)c1ccc2nc(CO[C@H]3CN(Cc4ccc5ccccc5n4)C[C@H]3F)[nH]c2c1,active: 100 µM
10,COc1ccc(CC(=O)N2CCCN(c3ccnc4ccnn34)CC2)cc1,"inconclusive: 44.7 µM [inhibitor, partial curve, poor fit]"
11,Cc1nn2c(c1-c1cccnc1N1CCOCC1)N(C(=O)C(C)C)CCC2,inactive
12,CC(C)N1C(=O)C(CC(=O)O)=C2CCCCC21 (configuration not stated),inactive
13,O=C1CC2(CCN(CC3CC3)CC2)Oc2cc(Cl)ccc21,"inconclusive: 126 µM [inhibitor, single point]"
14,O=C1N(c2ccccc2)c2ccccc2C12CCN(Cc1cncs1)C2 (configuration not stated),"inconclusive: 79.4 µM [inhibitor, partial curve]"
15,CCN1c2cc(C(=O)NCc3cccc(OC)c3OC)ccc2C(=O)N2CCCCC21 (configuration not stated),"inconclusive: 89.1 µM [inhibitor, single point]"
16,O=C1Cc2c(-c3ccc(F)cc3F)n[nH]c2CN1CCc1ccncc1,"inconclusive: 100 µM [inhibitor, partial curve, poor fit]"
17,O=c1cc2c(nn1Cc1cccc(Br)c1)CCCCC2,"inconclusive: 89.1 µM [inhibitor, single point]"
18,CCc1noc(-c2cn(C3CCN(C(=O)c4ccc(OC)cc4C)CC3)nn2)n1,"inconclusive: 89.1 µM [inhibitor, single point]"
19,COC(=O)N1CCC2(CC1)CCN(Cc1cccs1)c1ccccc1O2,"inconclusive: 50.1 µM [inhibitor, partial curve, poor fit]"
20,N#Cc1cccc(NC(=O)N[C@H]2[C@H](O)[C@@H](Sc3ccccc3)[C@@H]3OC[C@H]2O3)c1,"inconclusive: 112 µM [inhibitor, partial curve, poor fit]"
21,CC(C)c1noc(-c2cn(C3CCN(C(=O)c4cccc(F)c4)CC3)nn2)n1,"inconclusive: 50.1 µM [inhibitor, partial curve, poor fit]"
22,COc1ccccc1CCC(=O)N1CCN(C(=O)c2nnn3c2COC(c2ccccc2)C3)CC1 (configuration not stated),inactive
23,COCC(=O)N1CCC(Oc2nccnc2N2CCOCC2)C1 (configuration not stated),inactive

row,Compound,Potency
1,O=C(c1ccccc1F)N1CCCC2(C1)C(=NC1CCCC1)NC(=O)N2c1cc(F)cc(F)c1 (configuration not stated),"inconclusive: 70.8 µM [inhibitor, partial curve, poor fit]"
2,CN(c1ccccc1)c1cc(=O)c2ccnc(Nc3cccnc3)c2o1,"inconclusive: 112 µM [inhibitor, partial curve, poor fit]"
3,Cc1noc(-c2cccc(OC3CN(C(=O)c4ccoc4)C3)c2)n1,"inconclusive: 50.1 µM [inhibitor, partial curve, poor fit]"
4,COc1ccc(CNc2ncnc3c2CN(c2ccccc2C)C(=O)CN3C)cc1,inactive
5,COCCn1nnnc1C1CC2(CCOCC2)C(=O)N1Cc1ccc(Cl)cc1 (configuration not stated),inactive
6,COCCn1ccc2c(C3=CCOCC3)nc(-c3ccc4c(c3)CNC4=O)cc21,"inconclusive: 79.4 µM [inhibitor, partial curve]"
7,Cc1cccc(CN(C)C2CCCc3ccccc32)c1 (configuration not stated),inactive
8,O=C(CN1Cc2nc(Nc3ccc(C(F)(F)F)cc3)ccc2OCC1=O)N1CCCC1,active: 79.4 µM
9,CC(C)N1C(=O)C2(CCCCC2)C1C(=O)N1CCOCC1 (configuration not stated),inactive
10,COc1cc(OC)cc(C(=O)Nc2ccc3c(c2)CN(Cc2ccccc2)C(=O)C(C)O3)c1 (configuration not stated),"inconclusive: 39.8 µM [inhibitor, full curve]"
11,O=C(Cn1ccn2nc(-c3ccc(F)cc3)c(CO)c2c1=O)Nc1ccc(Br)cc1,"inconclusive: 39.8 µM [inhibitor, partial curve]"
12,CNC(=O)[C@H]1CN(C(=O)c2ccc(C)cc2)[C@]2(C)C(=O)N(CC3CC3)c3ccccc3[C@H]12,"inconclusive: 28.2 µM [inhibitor, partial curve, poor fit]"
13,CCC(=O)N1CCC(CC(=O)N2CCOCC2)C1 (configuration not stated),inactive
14,CC(C)NC(=O)NC1CC2(CCN(C(=O)Cc3ccc(O)cc3)CC2)c2ccccc21 (configuration not stated),inactive
15,O=C(CCCc1ccccc1)N1CCC(c2nc(C3CCOCC3)no2)C1 (configuration not stated),inactive
16,CCNC(=O)OC1CCN(C(=O)c2ccc(C(C)(C)C)cc2)CC(=O)N(C)c2ccccc21 (configuration not stated),"inconclusive: 31.6 µM [inhibitor, partial curve, poor fit]"
17,O=C(NC[C@H]1O[C@H](Cc2cc(-c3ccccn3)on2)CC[C@@H]1O)c1ccc2c(c1)OCO2,inactive
18,Cc1ccc(NC(=O)c2ccc3c(c2)N(C)C2CCCCN2C3=O)cc1F (configuration not stated),"inconclusive: 79.4 µM [inhibitor, partial curve, poor fit]"
19,Cc1c(CC(=O)NC(C)C)c2c(n1Cc1ccc(F)cc1)CCCC2=O,"inconclusive: 44.7 µM [inhibitor, partial curve, poor fit]"
20,O=C(Nc1ccc(F)cc1)c1cnn2ncccc12,"inconclusive: 126 µM [inhibitor, single point]"
21,O=C(c1cccnc1N1CC2CC(C1)[C@H]1CCCC(=O)N1C2)N1CCN(c2ccc(Cl)cc2)CC1 (some centres not stated),"inconclusive: 50.1 µM [inhibitor, partial curve, poor fit]"
